Out of some 52,000 compounds screened, about 1,700 (3.3%) were called active. Cut-off read from the data, not from the text of the source: active = survival mostly below about 52% (no sharp cut-off); inactive = mostly above about 56%. This is one part of the list.
Each compound was assayed on Wild type (assay: growth inhibition of S. aureus wild type versus tarO mutant, primary screen, teichoic acid synthesis inhibitors, RN4220, OD600 (AID 463173)). Conditions: S. aureus RN4220 wild type/DeltatarO growth, OD600, 18 h, active compounds read low, screened at 18.75 µg/mL (by protocol).

SMILES | survival
O=C(c1cccc(Cl)c1)N1CCC(c2nc3c(nnn3Cc3ccc(F)cc3F)c(=O)[nH]2)CC1 | active: 9%
COc1cc(C(=O)Nc2ccccc2OCc2cc(=O)n3cc(C)sc3n2)cc(OC)c1OC | inactive: 136%
Nc1nc(N)nc(COc2ccccc2)n1 | inactive: 104%
COc1ccc(-c2[nH]c(-c3ccc(OC)c(OC)c3)nc2SCC(=O)Nc2ccccc2)cc1 | inactive: 83%
Cc1cccc(NC(=O)c2oc3ccc(S(=O)(=O)N4CCCCC4)cc3c2C)c1C | inactive: 70%
COCc1[nH]nc2c1C(c1ccccc1C(F)(F)F)C(C#N)=C(N)O2 (centres undefined) | inactive: 114%
Cc1ccc(Nc2c(-c3ccc(N(C)C)cc3)nc3ccccn23)cc1 | inactive: 129%
Cn1ccc2cc(S(=O)(=O)N3CCCN(C(=O)Nc4ccc(Br)cc4)CC3)ccc21 | inactive: 75%
CCOc1ccccc1C(=O)N(Cc1ccc(N(C)C)cc1)Cc1ccco1 | inactive: 92%
CCOc1ccc(-c2nc3c(c(CC)nn3-c3ccccc3)c3cc(OC)c(OC)cc23)cc1 | inactive: 88%
CSc1ccccc1NC(=O)C1=CC(c2ccc3c(c2)OCO3)=NS(=O)(=O)N1C | inactive: 87%
CCOC(=O)c1ccc2c(c1)N(CC(=O)Nc1cc(F)ccc1F)C(=O)c1ccccc1S2 | inactive: 78%
O=C(NCCCN1CCN(c2ccc(F)cc2)CC1)c1cc2c(s1)-c1ccccc1OC2 | inactive: 62%
CCN(CC)CCOC(=O)c1ccc(NC(=O)c2nn(-c3ccc(C)cc3)c(=O)c3c2c2ccccc2n3C)cc1 | inactive: 123%
CCN(C(=O)Cn1nc2c3cc(F)ccc3n(Cc3cccc(C)c3)cc-2c1=O)c1cccc(C)c1 | inactive: 129%
CCOC(=O)CCN(Cc1ccccc1)S(=O)(=O)c1csc(C(N)=O)c1 | inactive: 92%
N=c1n(CC(=O)O)c2ccccc2n1Cc1ccccc1 | inactive: 112%
COc1ccc(NC(=O)c2c(NC(=O)COc3ccc(Cl)cc3)sc3c2CCCCC3)cc1 | inactive: 143%
Cc1cccc(-c2nc3cc(NC(=O)Cc4ccc(Cl)cc4)ccc3o2)c1 | inactive: 83%
COc1cc(OC)c(NC(=O)N2CCOc3ccc(C)cc32)cc1Cl | inactive: 82%
Cc1nn(-c2ccccc2)c2sc(C(=O)NN=C3CCCC3)cc12 | inactive: 109%
O=c1c2c(n3nnnc3n1-c1ccccc1)-c1ccccc1CC21CCCC1 | inactive: 93%
CNC(=O)CN(C#N)c1nc(N(C)C)nc(N(C)C)n1 | inactive: 96%
Cc1ccc(C)c(NC(=O)C(=O)NCC(c2cccnc2)N2CCN(c3ccc(F)cc3)CC2)c1 (centres undefined) | inactive: 24%

From PubChem BioAssay AID463173 (ICCB-Longwood Screening Facility, Harvard Medical School, 2010)
